Results: article PMC4336329 (PLoS ONE, 2015)
In all, about 310,000 compounds went through this assay and about 14,000 (4.5%) showed an effect of 50% or more. The effect is printed as a negative number. Some of the results follow. Where a SMILES comes first, the peptide text is derived from it. [ ]: non-standard residue; d: D form. The star is where a group is joined. ξ: configuration not given here. Boc = CC(C)(C)OC(=O)*; NHBn = c1ccc(CN*)cc1; ξV = CC(C)C(N)C(=O)O

biological target: human ether-à-go-go-related gene (hERG) potassium channel (human, UniProt Q12809); experiment: primary screen, population patch clamp on CHO cells stably expressing hERG
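Note: peak tail current of the secondary pulse compared with the same well before compound.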

Chain of human ether-à-go-go-related gene (hERG) potassium channel (Q12809 whole entry, looked up): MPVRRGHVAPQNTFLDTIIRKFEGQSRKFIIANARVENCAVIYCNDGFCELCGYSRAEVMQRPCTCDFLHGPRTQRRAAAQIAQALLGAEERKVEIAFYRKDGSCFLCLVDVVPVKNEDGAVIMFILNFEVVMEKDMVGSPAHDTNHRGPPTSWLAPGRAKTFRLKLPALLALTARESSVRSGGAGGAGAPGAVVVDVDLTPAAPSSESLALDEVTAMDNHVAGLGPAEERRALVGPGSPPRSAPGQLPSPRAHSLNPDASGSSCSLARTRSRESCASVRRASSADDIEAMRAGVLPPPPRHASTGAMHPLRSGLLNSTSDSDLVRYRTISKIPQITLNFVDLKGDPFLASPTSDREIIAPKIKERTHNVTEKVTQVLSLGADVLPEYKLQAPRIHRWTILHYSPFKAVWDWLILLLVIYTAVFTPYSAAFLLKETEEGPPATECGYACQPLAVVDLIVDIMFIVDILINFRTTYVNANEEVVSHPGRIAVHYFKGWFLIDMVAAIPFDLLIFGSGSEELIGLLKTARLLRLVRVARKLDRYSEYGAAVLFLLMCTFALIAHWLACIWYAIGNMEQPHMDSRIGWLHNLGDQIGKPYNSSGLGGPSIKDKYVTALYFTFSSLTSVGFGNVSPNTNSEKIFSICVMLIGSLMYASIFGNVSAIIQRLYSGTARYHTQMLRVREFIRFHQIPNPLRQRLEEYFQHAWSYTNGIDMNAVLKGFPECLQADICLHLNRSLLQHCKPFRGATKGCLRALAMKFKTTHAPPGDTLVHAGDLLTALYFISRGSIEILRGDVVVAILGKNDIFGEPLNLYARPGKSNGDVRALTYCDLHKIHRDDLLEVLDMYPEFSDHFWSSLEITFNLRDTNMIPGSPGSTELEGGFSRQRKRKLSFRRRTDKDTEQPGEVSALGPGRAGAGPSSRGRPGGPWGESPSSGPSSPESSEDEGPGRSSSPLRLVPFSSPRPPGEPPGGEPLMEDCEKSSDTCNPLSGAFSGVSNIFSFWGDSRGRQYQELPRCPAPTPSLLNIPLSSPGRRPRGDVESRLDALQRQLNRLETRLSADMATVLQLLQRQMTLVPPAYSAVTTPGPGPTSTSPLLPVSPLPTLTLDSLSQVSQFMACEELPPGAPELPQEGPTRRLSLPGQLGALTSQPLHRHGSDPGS

Row | Compound | hERG current change (%, negative = inhibition) at 10uM
1 | C=CCOc1cccc(C2C(C(=O)c3cccs3)=C(O)C(=O)N2Cc2cccnc2)c1 (stereo not shown) | -1.2%
2 | COc1ncccc1-c1nnn(-c2ccc(Cl)nc2)n1 | 3.26%
3 | O=S(=O)(c1ccccc1)c1cccc(S(=O)(=O)N2CCCCC2)c1 | -8.22%
4 | Cc1c(C(=O)NCc2ccc3c(c2)OCO3)oc2ccccc12 | -18.1%
5 | O=C(CSc1nnc(-c2cccnc2)o1)Nc1ccc(Cl)cc1 | -1.77%
6 | Cc1oncc1C(=S)Nc1ccccc1 | 6.95%
7 | O=C1CCC(=O)c2oc3ccccc3c2N1 | 6.16%
8 | COc1cc(F)c(S(=O)(=O)N2CCOc3ccccc32)cc1OC | -5.38%
9 | OCCCCO | 13.7%
10 | C/C(=N\NC(=O)COc1ccc([N+](=O)[O-])cc1)c1ccco1 | -28.3%
11 | COc1cc2c(cc1OC)C(C)N(C(C)=O)CC2 (stereo not shown) | -3.46%
12 | CCOCCCNC(=S)N1CCC(C(=O)c2ccc3c(c2)OCCO3)CC1 | 6.95%
13 | CCOc1ccc(N2C(=O)c3cccnc3C2Nc2ccc(Cl)cc2)cc1 (stereo not shown) | 11.5%
14 | Oc1ccc(/C=C/c2nc(-c3ccccc3O)n(-c3ccccc3)n2)cc1 | -4.56%
15 | O=C(NCC1CCCN1S(=O)(=O)c1cccs1)c1cccc(F)c1 (stereo not shown) | 8.18%
16 | CCN(CC(=O)Nc1ccc(C(C)=O)cc1)CC(=O)Nc1ccccc1C(F)(F)F | 2.52%
17 | Cc1ccc(N(Cc2ccc(C(=O)NN=C3CCN(C)CC3)cc2)S(C)(=O)=O)cc1C | 0.0652%
18 | O=C1c2ccc(-c3ccc4c(c3)C(=O)N(CCCO)C4=O)cc2C(=O)N1CCCO | 0.197%
19 | COc1cccc(C2=NOC(C(=O)N3CCc4ccccc4C3)C2)c1 (stereo not shown) | -29.1%
20 | CCCN1CCN(C(=O)c2cn(CC(C)C)c(=O)c3cc(OC)c(OC)cc23)CC1 | -41.1%
21 | CC1=C(C(=O)Nc2ccccc2)C(c2cccc([N+](=O)[O-])c2)Nc2nc3ccccc3n21 (stereo not shown) | 6.45%
22 | CCCOc1cccc(C(=O)NCCNC(=O)c2ccco2)c1 | 17.7%
23 | Cc1ccccc1Cn1cc(NC(=O)c2nc3ncccn3n2)cn1 | -1.56%
24 | Cc1cc(NC(=O)CN2CCCCC2)no1.O=C(O)C(=O)O | 18.8%
25 | Cn1cc(SCC(=O)NCC2CCCO2)c2ccccc21 (stereo not shown) | -3.9%
26 | CN(C)c1ccc(/C=N/n2c(-c3cccnc3)n[nH]c2=S)cc1 | 13.8%
27 | O=C(Nc1ccc2oc(=O)ccc2c1)c1ccc(-c2cccc(Cl)c2)o1 | 10.2%
28 | O=C(Cn1cnc2ccccc2c1=O)Nc1ccc(S(=O)(=O)N2CCCC2)cc1 | 15.2%

Row | Compound | hERG current change (%, negative = inhibition) at 10uM
29 | COc1cc(OC)c(NC(=O)c2ccc3c(SCC(=O)O)c4c(nc3c2)CCCC4)cc1Cl | 21.7%
30 | NC(=O)CSc1nnc(-c2ccc(S(=O)(=O)N3CCOCC3)cc2)n1Cc1ccccc1 | -1.42%
31 | CC1(c2ccc(Cl)cc2Cl)NC(=O)N(CC(=O)Nc2cccnc2Cl)C1=O (stereo not shown) | -0.315%
32 | COc1ccc(Cl)cc1NC(=O)C(C)OC(=O)c1ccc(NS(=O)(=O)c2ccc3[nH]c(=O)[nH]c3c2)cc1 (stereo not shown) | 9.32%
33 | Cc1cnc(NC(=O)[C@H](C)N2C(=O)C3CCCCC3C2=O)s1 (stereo partly shown) | 14.5%
34 | CCn1c(CNC(=O)Cc2ccc(OC)cc2)nnc1SCC(=O)NC1CCCCC1 | 8.03%
35 | Cc1cccc(N2C(S)=C(C#N)C(=O)NC2c2ccco2)c1 (stereo not shown) | -0.201%
36 | COc1ccc(NS(=O)(=O)c2ccc(N3CCOCC3)c(NC(=O)C(C)C)c2)cc1 | 3.13%
37 | O=C(Nc1ccccc1C(=O)O)/C(=C/c1ccc(Cl)cc1Cl)NC(=O)c1ccco1 | 20.4%
38 | COc1ccc(NC(=O)COC(=O)CC2CCCC2)cc1Cl | -1.21%
39 | COCc1cc(C)n(CC(=O)N2CCCC2)c(=O)c1C#N | 18.9%
40 | Cc1cc2oc(C(=O)NCc3ccc(S(N)(=O)=O)cc3)c(C)c2cc1C | 12.4%
41 | C=CCn1c(O)c(N=Nc2ccccc2)c2ccccc21 | 0.0231%
42 | CCC(C)NC(=O)c1ccc2c(SCC(=O)O)c3c(nc2c1)CCCC3 (stereo not shown) | -19.3%
43 | O=C(NNS(=O)(=O)c1ccccc1Cl)c1nn(-c2ccc(F)cc2)ccc1=O | 16.5%
44 | CC(C)C(NC(=O)CNC(=O)OC(C)(C)C)C(=O)NCc1ccccc1 (stereo not drawn) (Boc-Gly-[ξV]-NHBn) | -4.83%
45 | CC(=O)c1ccc(-n2c(CCC(=O)O)ccc2-c2ccc(C)cc2)cc1 | -3.05%
46 | C/C(N)=C(/C#N)C(=O)CSc1nnnn1-c1ccccc1 | 2.15%
47 | Cn1c(CSCc2ccc(Cl)c(Cl)c2)nnc1SCC(=O)Nc1nccs1 | 3.77%
48 | O=C(Nc1c2ccccc2nc2ccccc12)C(Cl)(Cl)Cl | -5.92%
49 | Cc1nc2ccc(Cl)cc2c(-c2ccccc2F)c1CC(=O)O | 0.288%
50 | COCCn1c(=S)[nH]c2cc(C(=O)NCCc3ccc(OC)c(OC)c3)ccc2c1=O | -4.04%
51 | COc1ccccc1CCNC(=O)Cn1ccc2cc(S(=O)(=O)N3CCC(C)CC3)ccc21 | 15.7%
52 | CC(C)(C)c1cc(NC(=O)c2c(F)cccc2Cl)n(-c2ccccc2)n1 | -37.5%
53 | CC(=O)c1cccc(N(C(=O)c2ccco2)C(C(=O)NC2CCCC2)c2ccc(N3CCOCC3)cc2)c1 (stereo not shown) | 8.31%
54 | Cc1occc1C(=O)NNC(=O)c1ccccc1C(=O)O | 6.98%
55 | Cc1ccccc1N1C(N)=NC(N)=NC1(C)C.Cl | -1.79%
